# Results published in the RNAGym collection of RNA variant scans (doi:10.1093/nar/gkz1192).
# Read counts are not given, so values of variants with three or more changes are uncertain.
# B1: CPEB3 Ribozyme (parent)
# chain: UAACAGGGGGCCACAGCAGAAGCGUUCACGUCGCAGCCCCUGUCAGAUUCUGGUGAAUCUGCGAAUUCUGCUGUAUAUCUC
# Variants of: B1
# Test: self-cleavage, relative activity (ratio to wild type); higher = more cleavage; in vitro, sequencing
# Method in brief: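 Barcoded CPEB3 ribozyme mutants, produced by rounds of error-prone PCR, self-cleaved while being transcribed with T7 RNA polymerase for 5 hours at 37°C and during a subsequent 15 min DNase I step before EDTA was added. Sequencing of template-switched cDNA on Illumina gave cleaved and total reads, and DNA sequencing assigned barcodes to variants. Each variant's relative activity is its cleaved/total read fraction divided by the unmutated ribozyme's fraction, averaged across three batches. A variant needed a minimum of 5 reads.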
row,Variant,self-cleavage
1,A28G U43C U58C,0.12
2,A28C A35U G63A,0.2
3,A28G U41A A47G,0.15
4,A28G A35G A47G U74C U80C,1.33
5,A28G A75G U78C,0.19
6,A28C A35U U41C U60C U72A,0.08
7,A28G U51C G53A U72A,0.41
8,A28G C32U U66A,0.12
9,A28G G46U A47U U49C A56G A65U,0.1
10,A28C G30C A56G A65G U74A U78C,0.06
11,A28G U43C U48A U60G,0.03
12,A28G U41G U48C U51A,0.36
13,A28G U41G U43A U54A A64G,0.08
14,A28G U54A G63A,0.63
15,A28G C40U U54A A57G,0.31
16,A28G U48C A57G U67A,0.24
17,A28G U49C U60A U69A,0.06
18,A28G G36A U54A A77G,0.16
19,C27A U49C U69C,0.13
20,A28G U31A A64G,0.17
21,A28G C29A C39U U49C,0.07

row,Variant,self-cleavage
1,A28G A35C A45G U60C,0.42
2,A28G U41C U60A C62U,0.06
3,A28G U41C U72C U74C,0.76
4,C27U U54A A75G,0.19
5,A28G U41C A57G A77U U80C,0.5
6,C27A G36A U43C U66C,0.13
7,A28G C29A A35G U41A G52A,0.3
8,A28G U51C U60C U67C A77G,0.08
9,C27G G46A U51C U58C U69A A75U,0.14
10,A28G G30A U78C,0.12
11,A28G G33C U67C U78C,0.09
12,A28C U41C A64G A65U,0.1
13,A28G A56G U60C U74A,0.13
14,C27A U49G C62A,0.16
15,A28G U31A U54C C68A U74C U78C,0.02
16,A28G G33A U43A U54C,0.35
17,C27U A47U A56U A57G,0.08
18,C27U U54C U60C,0.41
19,C27A U31C U72A,0.05
20,A28G U51A U60C G63U,0.3
21,A28G G33A U43A,0.52

row,Variant,self-cleavage
1,A28G G33A U48A A77U,0.22
2,A28G G53C A77G C81U,0.84
3,C27G U43C A56G U80A,0.24
4,A28G U43C U49C,0.29
5,A28G A64G U67A U78C,0.08
6,A28G U51A U69G,0.2
7,C27U A56G C62G A64G,0.12
8,A28G C34U A64G,0.13
9,A28G A45G U58C U69A U72C U76C A77U,0.09
10,A28G U31C U72C,0.5
11,A28G A56G U74C,0.8
12,A28G G53C U69A,0.16
13,A28G A35G C37G,0.18
14,A28G A35G U72C,1.34
15,A28G U49C A57U,0.15
16,C27G U48C U78C,0.13
17,A28G U43C U60A U66C U78C,0.38
18,C27U U51A U80A,0.56
19,A28G U31C U67A U80C,0.1
20,C27U A35G U60A,0.26
21,A28G G52C A56G U69C U80C,0.19

row,Variant,self-cleavage
1,A28G U31A A64G U69C U74C,0.11
2,A28G G36A U43A A56G A57G,0.06
3,A28G U60C U69A,0.17
4,A28G U60G U69A A77U C79A,0.07
5,C27U U43A U48C A64G,0.07
6,C27U U43C A45U A47G U60C C81U,0.05
7,A28G C44A A45C A64G U72C A77G,0.05
8,A28G A45G U54C,0.42
9,A28G U31A U49A U54A,0.14
10,C27U G52A A77U,0.1
11,A28C U43C U69A,0.1
12,A28G C32A C38G A47G U48C A56G C81U,0.21
13,A28G U43C G55U U72A,0.03
14,A28G U41A G55A,0.06
15,A28G A57C U80C,0.25
16,A28G U43C U54G G61U,0.08
17,A28G U41C C71G,0.09
18,A28G U54G U76C A77G,0.23
19,A28G U49C U51C U72C,0.48
20,A28G A45G A56G A75U,0.19
21,A28G G52A U54C U74C U78C,1.06
